In PubChem BioAssay AID485294 (National Center for Advancing Translational Sciences (NCATS), 2010):
Screen size: about 370,000 compounds; about 150 (0.041%) were called active. The shares of active, inactive and inconclusive entries below differ from those in the screen. The call rests on the fitted dose curve; in most records, active means well fitted inhibition curve with a large enough effect; inconclusive means small, poorly fitted or top-dose-only effect; inactive means flat fitted curve, though single readings scatter. No potency is given beside an inconclusive call; the fits are too rough.

Biological target: Beta-lactamase (Escherichia coli (strain K12)) (UniProt P00811)
Sequence of UniProt P00811 (P00811 whole entry, looked up): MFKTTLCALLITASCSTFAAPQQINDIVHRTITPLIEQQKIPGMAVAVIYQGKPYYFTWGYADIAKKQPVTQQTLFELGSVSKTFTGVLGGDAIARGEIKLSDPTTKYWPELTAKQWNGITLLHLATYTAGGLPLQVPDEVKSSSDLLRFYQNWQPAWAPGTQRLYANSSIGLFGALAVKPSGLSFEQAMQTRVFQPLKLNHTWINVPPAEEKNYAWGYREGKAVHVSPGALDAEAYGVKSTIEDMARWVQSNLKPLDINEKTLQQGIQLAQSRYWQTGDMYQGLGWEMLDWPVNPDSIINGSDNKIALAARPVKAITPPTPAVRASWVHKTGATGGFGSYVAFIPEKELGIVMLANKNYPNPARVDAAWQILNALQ
Assay: qHTS Inhibitors of AmpC Beta-Lactamase (assay with detergent); further: nearly all actives have a fitted effect of over 25% in size;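 on activity change, negative = inhibition: 0% = no-compound wells and -100% = no-enzyme wells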
Details: AmpC hydrolysis of nitrocefin, absorbance 480 nm, 0.01% Triton; activity change, negative = inhibition: at 114 µM (top of the series)
Method in brief: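 20 mM phosphate pH 7.0 + 0.01% (detergent screen) or 0.0001% Triton X-100; 5.3 nM AmpC reagent; cpd preinc 15 min RT; nitrocefin (800 uM stock) to start; A480 q20 s × 4 min; Activity was normalised to no-enzyme and no-compound control wells.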
Potency means the concentration at half of the fitted maximal effect; tags describe the fitted curve by direction and shape.

Row | Compound | Potency | activity change, negative = inhibition
1 | O=C1CCCN2N=C(SCC(=O)Nc3cccc(C(F)(F)F)c3)SC2=N1 | inconclusive [inhibitor, partial curve] | –
2 | COc1cccc(N(C(=O)Cn2nnc3ccccc32)C(C(=O)NCc2ccco2)c2cccnc2)c1 (stereo not drawn) | inconclusive [inhibitor, full curve, poor fit] | –
3 | Cc1ccc2nc3c(cc2c1)CC1(C(=O)N(C)C(=O)N(C)C1=O)C1CCCCN31 (stereo not drawn) | – | inactive: -3.12%
4 | CC1CCCC(C)N1C(=O)COC(=O)c1cc([N+](=O)[O-])ccc1N1CCOCC1 (stereo not drawn) | inconclusive [inhibitor, single point] | –
5 | CCOC(=O)N1CCC(=NNC(=O)c2cc3ccccc3cc2O)CC1 | inconclusive [inhibitor, full curve, poor fit] | –
6 | O=C(Nc1ccccc1)N(CCCN1CCOCC1)Cc1ccccc1F | inconclusive [inhibitor, full curve, poor fit] | –
7 | O=C(c1ccc(N2CCOCC2)c([N+](=O)[O-])c1)N1CCCC(C(F)(F)F)C1 (stereo not drawn) | inconclusive [inhibitor, full curve, poor fit] | –
8 | Cc1ccc(CN2c3ccccc3-c3nc(SCC(=O)Nc4c(C)cc(C)cc4C)ncc3S2(=O)=O)cc1 | – | inactive: 9.71%
9 | Cc1cccc(NC(=O)CCC(=O)NCCO)c1 | inconclusive [inhibitor, single point] | –
10 | CCn1c(SCC(=O)N2CCCC2)nc2c1c(=O)n(C)c(=O)n2C | inconclusive [inhibitor, full curve, poor fit] | –
11 | O=C(N/N=C/c1cccnc1)c1cc(Br)ccc1O | inconclusive [inhibitor, full curve, poor fit] | –
12 | COc1ccc(-n2ncc3c2CC(C)(C)CC3NC(=O)CCc2c(C)nn(C)c2C)cc1 (stereo not drawn) | inconclusive [inhibitor, partial curve, poor fit] | –
13 | CCOC(=O)N1CCN(S(=O)(=O)c2ccc(F)cc2)CC1 | inconclusive [inhibitor, partial curve] | –
14 | O=C(COc1cc2oc(=O)c3c(c2cc1Cl)CCC3)NCCN1CCOCC1 | inconclusive [inhibitor, full curve, poor fit] | –
15 | O=C(Cc1ccccc1)Nc1nnc2n1CCS2 | – | inactive: 4.02%
16 | Cc1ccnc(N2C(=O)c3ccccc3C2O)c1 (stereo not drawn) | inconclusive [inhibitor, full curve, poor fit] | –
17 | O=C1CC(N2CCC(c3nc4ccccc4o3)CC2)C(=O)N1c1ccc(F)cc1 (stereo not drawn) | – | inactive: 6.86%
18 | Cc1ccc(S(=O)(=O)NCC(c2ccc(N(C)C)cc2)N2CCc3ccccc32)cc1 (stereo not drawn) | – | inactive: 13.2%
19 | COc1ccc(CN2C(=O)CC(Cc3cc(C)cc(C)c3)C2=O)cc1OC (stereo not drawn) | inconclusive [inhibitor, full curve, poor fit] | –
20 | CCOC(=O)N1CCN(C(=O)COC(=O)Cc2ccc(Cl)cc2)CC1 | inconclusive [inhibitor, full curve, poor fit] | –
21 | CC1CCCCN1C(=O)COC(=O)C1CCN(S(=O)(=O)c2ccc3c(c2)OCCO3)CC1 (stereo not drawn) | inconclusive [inhibitor, full curve] | –
22 | COc1cc(C(=O)Nc2cccc3c2CCCC3)cc(OC)c1OC | inconclusive [inhibitor, full curve, poor fit] | –
23 | Cc1cc(C)cc(NC(=S)NCCSc2ccc(Cl)cc2)c1 | inconclusive [inhibitor, full curve] | –

Row | Compound | Potency | activity change, negative = inhibition
24 | Cc1cc(C(C)(C)C)cc(C)c1CCNC(=O)c1c(C)noc1C | – | inactive: 1.22%
25 | CCn1cc(/C=N/NC(=O)c2cc3c(ccc4ccccc43)o2)c2ccccc21 | inconclusive [inhibitor, partial curve, poor fit] | –
26 | COc1cc(NC(=O)c2cc(S(=O)(=O)N3CCCCC3)ccc2N2CCOCC2)cc(OC)c1 | inconclusive [inhibitor, full curve, poor fit] | –
27 | Cc1[nH]n(-c2ccccc2)c(=O)c1N=Nc1ccc(C(N)=O)cc1 | inconclusive [inhibitor, full curve, poor fit] | –
28 | CCOc1ccc2oc(C(=O)N3CC(C)OC(C)C3)c(C)c2c1 (stereo not drawn) | – | inactive: 0.816%
29 | CC1Cc2nc(SCC(N)=O)n(Cc3ccccc3)c(=O)c2S1 (stereo not drawn) | – | inactive: 4.81%
30 | NS(=O)(=O)c1ccc(NCc2ccccc2OCc2ccccc2F)cc1 | – | inactive: -1.79%
31 | Cc1cccc(NC(=S)NC(=O)c2ccc(-c3ccccc3)cc2)n1 | – | inactive: -2.26%
32 | CCc1ccc(OCC(=O)O/N=C(\N)c2ccccn2)cc1 | – | inactive: 3.52%
33 | CC1=C(C(=O)Nc2ccccc2)C(c2ccc(C)o2)n2c(s/c(=C/c3ccccc3)c2=O)=N1 (stereo not drawn) | inconclusive [inhibitor, full curve, poor fit] | –
34 | CN(Cc1ccccc1)S(=O)(=O)c1ccc2c(c1)n(C)c(=O)c(=O)n2C | – | inactive: -1.91%
35 | Cc1ccc(C2CC(c3ccc(Cl)cc3)n3nc(N)nc3N2)cc1 (stereo not drawn) | inconclusive [inhibitor, full curve, poor fit] | –
36 | CCOc1cc(C2C3=C(CC(C)(C)CC3=O)N(C)C3=C2C(=O)CC(C)(C)C3)ccc1O | inconclusive [inhibitor, partial curve, poor fit] | –
37 | COc1cc(C2C(C#N)=C(N)Oc3cc(C)oc(=O)c32)cc2c1OCO2 (stereo not drawn) | inconclusive [inhibitor, single point] | –
38 | COC(=O)C1C(c2ccc(OC)cc2)C(C(=O)OC)S(=O)(=O)C(CCN2CCCCC2)S1(=O)=O (stereo not drawn) | inconclusive [inhibitor, full curve, poor fit] | –
39 | CCOc1ccc(-c2cccc(NS(=O)(=O)c3ccccc3C(F)(F)F)c2)nn1 | – | inactive: 27%
40 | O=C(Nc1cc(-c2ccccc2)nn1-c1ccccc1F)c1ccc([N+](=O)[O-])cc1 | inconclusive [inhibitor, partial curve, poor fit] | –
41 | CCc1ccc(Cc2cnc(NC(=O)C3=NCCN3)s2)cc1 | – | inactive: -4.42%
42 | CCc1cc(=O)oc2c3c(cc(OCC(=O)Nc4cccnc4)c12)OC(C)(C)CC3 | inconclusive [inhibitor, partial curve, poor fit] | –
43 | Cc1ccccc1/C=N/N1CCN(c2ccccc2)CC1 | – | inactive: -1.55%
44 | O=[N+]([O-])c1ccc(Cl)c(CN2CCN(c3ncccn3)CC2)c1 | inconclusive [inhibitor, partial curve] | –
45 | CCN(c1cccc(C)c1)S(=O)(=O)c1c(C)[nH]c(=O)[nH]c1=O | inconclusive [inhibitor, full curve, poor fit] | –
46 | COc1cc(C(=O)NC(=S)Nc2ccc(Cc3ccncc3)cc2)cc(OC)c1OC | – | inactive: -3.88%

Row | Compound | Potency | activity change, negative = inhibition
47 | COc1ccccc1NC(=S)N(Cc1ccccc1)Cc1ccccn1 | inconclusive [inhibitor, partial curve, poor fit] | –
48 | Cc1ccc(Cc2cnc(N)s2)o1 | inconclusive [inhibitor, full curve] | –
49 | CCC(NC(=O)c1ccccc1NC(=O)c1ccccc1)C(=O)NNC(=O)CSc1nc2ccccc2o1 (stereo not drawn) | inconclusive [inhibitor, partial curve, poor fit] | –
50 | Cc1c(Cl)cccc1NC(=S)NC(=O)CCN1C(=O)c2ccccc2C1=O | inconclusive [inhibitor, full curve, poor fit] | –
51 | CCOc1ccc(NC(=S)Nc2ccc(F)cc2)cc1 | inconclusive [inhibitor, full curve, poor fit] | –
52 | C=CCN1C(=O)c2ccc(C(=O)N(C)CC(=O)Nc3c(C)cccc3C)cc2C1=O | – | inactive: 0%
53 | COc1ccc(N2CCN(c3nc4cc(C)ccc4cc3C=O)CC2)cc1 | – | inactive: -12.6%
54 | Cc1cc(NC(=O)c2ccc(Cl)cc2Cl)no1 | inconclusive [inhibitor, full curve, poor fit] | –
55 | CC(C)n1nccc1N(Cc1ccc(Br)cc1)S(=O)(=O)c1ccccc1 | – | inactive: -2.09%
56 | COc1ccc(-c2noc(CSc3nc(N)cc(=O)[nH]3)n2)cc1 | inactive | –
57 | CN1CCN(C(=O)C2CC(c3c(F)cccc3Cl)=NO2)CC1 (stereo not drawn) | inconclusive [inhibitor, full curve] | –
58 | O=c1[nH]c(-c2cccnc2)nc2sc(-c3ccccc3)cc12 | – | inactive: 1.2%
59 | Cc1cc(C)cc(C(=O)NCC(=O)N2CCN(C(c3ccccc3)c3ccccc3)CC2)c1 | inconclusive [inhibitor, full curve, poor fit] | –
60 | CC(C)Nc1nc(NC(C)C)nc(SCC(N)=O)n1 | inconclusive [inhibitor, single point] | –
61 | COCCn1nnnc1CN1CCC(O)(c2cccc(C(F)(F)F)c2)CC1 | – | inactive: -2.44%
62 | C/C(CCc1ccc2c(c1)OCO2)=N\NC(=O)c1ccc(C)cc1C | inconclusive [inhibitor, partial curve] | –
63 | CNS(=O)(=O)c1cccc2cccnc12 | inconclusive [inhibitor, partial curve, poor fit] | –
64 | CCc1ccc(NC(=O)c2[nH]c(C)c(C(C)=O)c2C)cc1 | – | inactive: -9.73%
65 | Cc1ccsc1CNC1CCCCC1 | – | inactive: -12.3%
66 | CCc1nc(SCC(=O)NCCc2ccc(OC)c(OC)c2)c2c(=O)n(C)c(=O)n(C)c2n1 | inconclusive [inhibitor, single point] | –
67 | COc1ccc(CCNC(=O)CSc2nnc(Cc3cccn3C)n2C)cc1OC | inconclusive [inhibitor, single point] | –
68 | Cc1cc(C)c(C(=O)COC(=O)c2cc([N+](=O)[O-])ccc2N2CCOCC2)cc1C | inconclusive [inhibitor, partial curve, poor fit] | –
